This is an account of results in patent EP4197559A1, “IMMUNOMODULATORY PROTEIN-SIRNA COMPLEX HAVING ANTICANCER ACTIVITY” (Korea Institute of Science and Technology, priority 2020, dated 2022).

For this assay, the target named is T1, CD47 receptors on HT-29 cells (human-derived colon cancer cells) (human, UniProt Q08722 19-323).
T1 construct: whole, on cells
The experiment in a line: confocal microscopy of HT-29 cells; uptake reduced by the CD47 antibody.

B1: fusion protein-siRNA complex prepared in Example 2 (SIRPα-CD47 siRNA) (other)
chain: EEELQIIQPDKSVLVAAGETATLRCTITSLFPVGPIQWFRGAGPGRVLIYNQRQGPFPRVTTVSDTTKRNNMDFSIRIGNITPADAGTYYCIKFRKGSPDDVEFKSGAGTELSVRAKPVDGGFLGGGGCG
modifications: CD47 siRNA (sense strand SEQ ID NO 17, antisense strand SEQ ID NO 18) bound 1:1 through maleimide at the 3'-end of the sense strand to the thiol group of the cysteine at the C-terminal end of the fusion protein
notes: Expressed in E. coli BL21 (DE3) from pet28a and purified by its His-tag; The protein was detected in cells with an FITC-labeled His-tag antibody; also called SIPRα-CD47 siRNA; immunoregulatory protein-siRNA complex
In the case of B1, the binding result is “binds”.
